From PubChem BioAssay AID463254 (National Center for Advancing Translational Sciences (NCATS), 2010)
In all, about 330,000 compounds went through this assay and about 40 (0.01%) were called active. The inconclusive results got no clear call from the source; some entries with a clear call stand among them for comparison. Calls follow the shape of the dose curve; as a rule, active = well fitted inhibition curve with a large enough effect; inconclusive = small, poorly fitted or top-dose-only effect, or effect the other way; inactive = flat fitted curve, though single readings scatter. Where the call is inconclusive, the potency comes from a doubtful curve fit.
Potency is read from the fitted curve at half-maximal effect; tags tell the direction and shape of the fitted curve or compound fluorescence and quenching.

The compounds below were run against Ubiquitin carboxyl-terminal hydrolase 2 (Homo sapiens) (UniProt O75604) (assay: qHTS Assay for Inhibitors of Ubiquitin-specific Protease USP2a Using CHOP2 as the Reporter). Conditions: USP2 core, Ub-CHOP2 coupled fluorogenic reporter, 485/531; series mostly up to 38.3 µM.
Chain of UniProt O75604 (O75604 whole entry, looked up): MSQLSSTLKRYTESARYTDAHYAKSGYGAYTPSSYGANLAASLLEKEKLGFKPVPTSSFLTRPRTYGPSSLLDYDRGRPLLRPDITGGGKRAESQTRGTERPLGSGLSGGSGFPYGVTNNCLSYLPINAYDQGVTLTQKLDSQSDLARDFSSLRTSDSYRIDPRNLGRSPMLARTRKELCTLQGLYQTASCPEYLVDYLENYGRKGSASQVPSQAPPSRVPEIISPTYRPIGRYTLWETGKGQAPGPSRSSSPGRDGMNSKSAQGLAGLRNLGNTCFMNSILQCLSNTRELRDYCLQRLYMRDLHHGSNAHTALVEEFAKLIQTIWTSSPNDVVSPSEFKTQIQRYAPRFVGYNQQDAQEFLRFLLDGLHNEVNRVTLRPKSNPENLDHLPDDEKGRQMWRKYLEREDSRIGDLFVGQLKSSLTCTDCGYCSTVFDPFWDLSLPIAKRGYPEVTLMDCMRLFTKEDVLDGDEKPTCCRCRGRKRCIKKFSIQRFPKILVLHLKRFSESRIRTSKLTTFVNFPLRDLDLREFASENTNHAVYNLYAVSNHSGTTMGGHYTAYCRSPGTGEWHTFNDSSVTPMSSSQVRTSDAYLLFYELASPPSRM
Method in brief: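 Cell-free coupled assay: 10nM USP2 core preincubated 30min RT with compound in Tris-HCl pH 8.0/CaCl2/CHAPS buffer, then 25nM Ub-CHOP2 and 25nM reporter substrate; fluorescence (Ex 485/Em 531) read after 60min RT, normalized to NEM inhibition, concentration-response curves fitted.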
For NC(=O)c1c(N)sc2c1CCCCC2, the Potency was “inactive”. In the case of COc1ccc(-c2noc(CSc3nnc(Cc4ccccc4)n3-c3ccc(Cl)cc3)n2)cc1, the Potency is reported as inconclusive: 5.01 µM [falling, single point]. For O=C(NC1CCCCC1)c1cccc2c1C(=O)c1ccc(N3CCC(Cc4ccccc4)CC3)cc1S2(=O)=O, the Potency was inconclusive: 20 µM [fluorescent, single point]. With Cc1ccc(C(=O)N/C(=C\c2ccco2)C(=O)NCCCn2ccnc2)cc1C the Potency was “inactive”. With COc1ccc(/C(O)=C/c2nc3ccccc3n(-c3ccccc3)c2=O)cc1 the Potency was “inactive”. With Cc1cc(NC(=O)COC(=O)CCCOc2ccc(Cl)cc2C)no1 the Potency was inconclusive: 28.2 µM [falling, single point]. With CCN(c1cccc2ccccc12)S(=O)(=O)c1ccc(Cl)nc1 the Potency was “inactive”. With CC1(C)CC(=O)C2=C(C1)Oc1ncn(CCCO)c(=N)c1C2c1ccccc1 (stereo not drawn) the Potency was inconclusive: 28.2 µM [falling, single point]. In the case of COC(=O)NNC(=O)/C=C/c1ccccc1, the Potency is reported as “inactive”. With COc1ccccc1NC(=O)N1CCN(c2ccccn2)CC1 the Potency was inconclusive: 22.4 µM [falling, single point]. With Cc1cccc(N2C(=O)c3cccc4c(N)ccc(c34)C2=O)c1 the Potency was inconclusive: 11.2 µM [fluorescent, partial curve]. For COc1ccc(Cc2nnc(NC(=O)Cc3cccs3)s2)cc1, the Potency was inconclusive: 20 µM [falling, single point]. In the case of N#CC(C(=O)NCCc1ccccc1)c1nc2ccccc2nc1N1CCCCC1 (stereo not drawn), the Potency is reported as inconclusive: 28.2 µM [fluorescent, single point]. In the case of CNS(=O)(=O)c1ccc2c3c(cccc13)C(=O)N2C, the Potency is reported as “inactive”. O=C(C1CCCN(S(=O)(=O)c2cccc3cccnc23)C1)N1CCN(c2ccccc2F)CC1 (stereo not drawn) was tested, and the Potency was inconclusive: 5.01 µM [falling, single point]. In the case of Cc1ccc(NC(=O)CS(=O)CC(=O)Nc2ccc(N3CCOCC3)cc2)cc1Cl (stereo not drawn), the Potency is reported as inconclusive: 20 µM [falling, single point]. For CS(=O)(=O)c1nc(-c2ccc(Br)cc2)cc(-c2ccccc2)c1C#N, the Potency was inconclusive: 4.47 µM [falling, single point]. In the case of Cc1c(OC(C)C(=O)NCCCN2CCCC2=O)ccc2c3c(c(=O)oc12)CCCC3 (stereo not drawn), the Potency is reported as “inactive”. In the case of CCN(CC)c1ccc(/C=C(/C#N)C(=O)NC(C)C)o1, the Potency is reported as inconclusive: 11.2 µM [fluorescent, single point]. CCCCN1CC(C(=O)NCc2ccc(C)cc2)CC1=O (stereo not drawn) was tested, and the Potency was “inactive”. With O=C(COc1ccccc1)NCc1nnc(SCC(=O)Nc2nccs2)n1-c1ccccc1 the Potency was inconclusive: 2.82 µM [falling, single point]. In the case of CCCCCCCC#Cc1ccccc1/C=N/S(=O)c1ccc(C)cc1 (stereo not drawn), the Potency is reported as “inactive”. c1ccc(-c2nc3nc4ccccc4nc3n2Cc2ccco2)cc1 was tested, and the Potency was inconclusive: 3.16 µM [falling, single point]. In the case of CCCc1cc(=O)oc2cc(OCC(=O)Nc3ccc(S(N)(=O)=O)cc3)ccc12, the Potency is reported as inconclusive: 20 µM [falling, single point]. For Cn1c(/C(C#N)=C/c2ccc(-c3ccc(S(N)(=O)=O)cc3)o2)nc2ccccc21, the Potency was inconclusive: 15.8 µM [fluorescent, single point]. Nc1nc(Sc2c([N+](=O)[O-])cc(C(F)(F)F)cc2[N+](=O)[O-])n[nH]1 was tested, and the Potency was “inactive”. With Cc1cc2nc3c(=O)n(C4CCCCC4)c(=O)[nH]c3nc2cc1N the Potency was inconclusive: 12.6 µM [fluorescent, partial curve]. In the case of CCCn1c(O)c(N=Nc2ccc3ccccc3n2)c2ccccc21, the Potency is reported as inconclusive: 14.1 µM [fluorescent, single point]. In the case of COc1cc(/C=C2\SC(=N)N(c3ccc(F)cc3)C2=O)ccc1O, the Potency is reported as “inactive”. In the case of CCOC(=O)c1nn(-c2ccc(Cl)cc2)c2nc(CC)c(C#N)c(=O)n12, the Potency is reported as inconclusive: 15.8 µM [fluorescent, single point]. With Cc1cc2cc(C=C(C#N)C#N)c(Cl)nc2cc1C the Potency was inconclusive: 7.08 µM [fluorescent, partial curve]. For O=C(O)c1ccc2c(c1)C(=O)N([C@]1(C(=O)O)CC1c1ccccc1)C2=O (stereo partly drawn), the Potency was “inactive”. With O=[N+]([O-])c1cc(/C=N\Nc2nccs2)ccc1O the Potency was inconclusive: 28.2 µM [falling, single point]. For Cc1cccc(C)c1-n1cccc1/C=C1\SC(=S)N(c2cccc(C(=O)O)c2)C1=O, the Potency was inconclusive: 28.2 µM [falling, single point]. In the case of O=S(=O)([O-])CCC[n+]1c(/C=C\Nc2ccccc2)oc2ccc(-c3ccccc3)cc21, the Potency is reported as inconclusive: 2.82 µM [fluorescent, full curve]. With CC(=O)c1ccccc1NC(=O)COC(=O)/C(=C/c1ccccc1)n1nnnc1C the Potency was “inactive”. In the case of COc1ccc(/C=C2/SC(=S)N(c3ccc(S(=O)(=O)Nc4nccs4)cc3)C2=O)cc1, the Potency is reported as inconclusive: 20 µM [falling, single point]. CC(C)(C)[C@H]1COC(=O)[C@@H](Cc2ccc(F)cc2)C/C=C\C[C@@H](CC(=O)N[C@H](CO)Cc2ccccc2)C(=O)N1 was tested, and the Potency was inconclusive: 28.2 µM [falling, single point]. In the case of Cc1ccc(CNC(=O)/C(C#N)=C\c2ccc(N(C)C)cc2)cc1, the Potency is reported as inconclusive: 20 µM [fluorescent, single point]. For Cc1cc[n+](-c2[nH]c(=O)sc2/C=N/NC([S-])=Nc2ccccc2)cc1C, the Potency was inconclusive: 17.8 µM [fluorescent, single point]. In the case of O=C(NC1CCCC1)C1C2C=CC(C2)C1C(=O)N1CCOCC1 (stereo not drawn), the Potency is reported as inconclusive: 20 µM [falling, single point]. In the case of S=c1[nH]nc(-c2cc3c(s2)-c2ccccc2CC3)o1, the Potency is reported as “inactive”. For Cc1c(O)c(CN2CCCC2)cc2c3c(c(=O)oc12)CCC3, the Potency was inconclusive: 5.01 µM [falling, single point]. For CC(OC(=O)c1nsc(Cl)c1Cl)C(=O)NCc1ccco1 (stereo not drawn), the Potency was inconclusive: 12.6 µM [falling, single point]. In the case of O=C(O)c1ccccc1-c1nc2ccccc2c(=O)[nH]1, the Potency is reported as “inactive”. In the case of O=C(O)CP(=O)(c1ccccc1)c1ccccc1, the Potency is reported as inconclusive: 28.2 µM [falling, single point]. With Cc1cccc(NC(=O)CNC(=O)CCc2nc3sc4c(c3c(=O)[nH]2)CCCC4)c1C the Potency was “inactive”. With CCOC(=O)CSc1nc2c(sc(=S)n2-c2ccc(CC)cc2)c(=O)[nH]1 the Potency was “inactive”. With O=c1[nH]c(=S)[nH]c2c1C(c1ccc(Br)cc1)c1c([nH]c(=S)[nH]c1=O)O2 the Potency was inconclusive: 28.2 µM [falling, single point]. In the case of CCOC(=O)Cc1csc(NC(=O)NC2(C(F)(F)F)Oc3ccc(Cl)cc3O2)n1 (stereo not drawn), the Potency is reported as “inactive”. For Oc1[nH]c2ccccc2c1N=Nc1ccc(F)cc1, the Potency was inconclusive: 28.2 µM [fluorescent, single point]. In the case of COc1ccc(OCc2cc(C(=O)N(C)Cc3cc(C4CC4)n[nH]3)no2)c(Cl)c1, the Potency is reported as “inactive”. With Cc1ccc(S(=O)(=O)NCC(=O)NCC(=O)N(C)Cc2ccc3ccccc3c2)cc1C the Potency was “inactive”. With CCN(CC)C(=O)c1sc2nc(-c3cccs3)cc(-c3ccc(Cl)cc3)c2c1N the Potency was inconclusive: 14.1 µM [fluorescent, single point]. In the case of CCCOc1ccc(C(C)=O)cc1CSc1nc(O)cc(=O)[nH]1, the Potency is reported as inconclusive: 22.4 µM [falling, single point]. In the case of Cc1noc(/C=C/c2ccco2)c1S(=O)(=O)N1CCC(C(=O)N2CCc3ccccc3C2)CC1, the Potency is reported as inconclusive: 20 µM [falling, single point]. With COc1cc(NC(=O)COC(=O)CSc2ccccc2F)c(C)cc1[N+](=O)[O-] the Potency was inconclusive: 28.2 µM [falling, single point]. In the case of CCO[C@H]1OC(C(=O)NCc2nc3ccccc3[nH]2)=C[C@@H](c2csc3ccccc23)[C@@H]1CCCO, the Potency is reported as “inactive”. Cc1ccc(NC(=O)/C(=C/C=C/c2ccccc2)NC(=O)c2ccccc2)cc1 was tested, and the Potency was “inactive”. O=C(NC1CCCCC1)C(=S)NCCc1ccccc1 was tested, and the Potency was “inactive”. In the case of CSc1cccc(NC(=O)/C=C/c2ccc(Cl)cc2)c1, the Potency is reported as “inactive”. In the case of Cc1cccc(-c2nnc3n2N=C(c2ccc(Br)cc2)CS3)c1, the Potency is reported as inconclusive: 5.01 µM [falling, single point]. CC(=O)Nc1cccc(C2=CC(c3ccco3)n3ncnc3N2)c1 (stereo not drawn) was tested, and the Potency was inconclusive: 28.2 µM [fluorescent, single point].
